Consider 53 compounds from PubChem BioAssay AID1346428 (National Center for Advancing Translational Sciences (NCATS), 2018).

Molecules are shown by their SMILES. About 1,200 (2.5%) of roughly 48,000 compounds were called active. Roughly 2% stayed inconclusive and do not appear here.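 The calls were made as follows: active = activation of at least 60% and not above a set upper limit (about 1 call in 100 departs from these limits); inconclusive = activation of 40% to 60%, or above that upper limit; inactive = activation under 40%.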 The list shows a part of the results.

UniProt O75388, sequence (O75388 whole entry, looked up): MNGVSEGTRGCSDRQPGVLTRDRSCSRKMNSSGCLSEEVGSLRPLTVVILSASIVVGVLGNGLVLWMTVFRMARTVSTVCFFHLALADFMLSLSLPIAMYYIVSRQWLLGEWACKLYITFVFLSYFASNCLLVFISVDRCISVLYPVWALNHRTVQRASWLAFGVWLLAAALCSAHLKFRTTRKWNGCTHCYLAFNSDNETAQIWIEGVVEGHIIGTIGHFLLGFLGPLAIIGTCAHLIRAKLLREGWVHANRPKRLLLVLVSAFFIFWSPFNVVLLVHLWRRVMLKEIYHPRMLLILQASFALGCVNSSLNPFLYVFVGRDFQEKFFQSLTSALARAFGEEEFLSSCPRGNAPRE

The test addresses Probable G-protein coupled receptor 32 (Homo sapiens) (UniProt O75388). As to the kind of experiment: qHTS for Agonists of Human Resolvin D1 Receptor DRV1. Also: 0% is about no effect. The settings on record: CHO-K1 GPR32 beta-arrestin PathHunter luminescence, 90 min; at 76.9 µM; active compounds read high; zero percent set by DMSO-only wells. In a few lines:
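Luminescent readout of beta-Gal complementation quantifies ligand-induced beta-arrestin association with GPR32 in CHO-K1 cells; 90 min compound incubation at 37 °C, detection 1 h at room temperature.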
As for `CC1CCN(c2cc3c(cc2F)c(=O)c(S(=O)(=O)c2ccc(Cl)cc2)cn3C)CC1`, the activation was inactive: -4.56%.

Turning to `CCC(=O)N1CCc2cc(Br)cc(S(=O)(=O)N3CCC(C(=O)N(CC)CC)CC3)c21`, the activation is inactive: -2.53%.

As to `CCn1cc(C(=O)N2CCN(c3cc(Cl)ccc3C)CC2)c(=O)c2cc(S(=O)(=O)N3CCOCC3)ccc21`, the activation is inactive: -3.81%.

`Cc1ccccc1OCc1cc(=O)n2c(-c3ccccc3)csc2n1`: the activation was inactive: 31.5%.

Regarding `CC(C)CCNC(=O)c1cn(C)c2ccc(S(=O)(=O)N3CCCC3)cc2c1=O`, the activation is inactive: -4.35%.

As for `CCOc1ccc(-c2cc3nc(C4CCN(C(=O)OC(C)(C)C)CC4)c(C(=O)Nc4ccc(C)c(F)c4)cn3n2)cc1`, the activation is inactive: 3.65%.

As to `Cc1nn(C)c2c1c(C(F)(F)F)cc(=O)n2C(C)C(=O)NCCc1ccc(Cl)cc1` (stereo not drawn), the activation is inactive: -5.92%.

As for `Cc1c(-c2cccc(NC(=O)c3ccc(F)c(F)c3)c2)nc2ncccn12`, the activation is active: 64.1%.

For `COCCOC(=O)c1c(C)oc2c1cc(NS(=O)(=O)c1ccc(Cl)c(C)c1)c1ccccc12`, the activation is inactive: 34.5%.

Consider `CCc1ccccc1NS(=O)(=O)c1ccc2oc(=O)c3ncn(C)c3c2c1`, for which the activation was inactive: -23.8%.

For `COc1ccc(OCc2ccc(-c3nc(C#N)c(NCc4ccccc4)o3)o2)cc1`, the activation is inactive: -26.7%.

Take `N#Cc1ccc(C(=O)Nc2ccccc2-c2nc3ccccc3s2)c(F)c1`: the activation was inactive: -7.93%.

As to `Cc1ccc(Oc2coc3cc(OCC(=O)NC4CCCCC4)ccc3c2=O)cc1`, the activation was inactive: 1.5%.

Turning to `CCOC(=O)Cc1ccc(NC(=O)n2ncc3cc(Cl)ccc32)cc1`, the activation was inactive: 7.61%.

Turning to `CNS(=O)(=O)c1ccc(NC(=O)c2cnn3c(C(F)F)cc(-c4ccccc4)nc23)cc1`, the activation is inactive: -0.0428%.

`CCOC(=O)c1cnc2c(Cl)c(Cl)ccc2c1NCCN1CCOCC1`: the activation is inactive: -7.38%.

Consider `O=C(Nc1ccc(F)cc1Cl)C1CCN(c2ncnc3c2nc2n3CCCCC2)CC1`, for which the activation is inactive: -1.1%.

As for `CN(C1CCCCC1)S(=O)(=O)c1ccc2c(c1)c(=O)c(C(=O)NCc1ccccc1Cl)cn2C`, the activation was inactive: 8.76%.

Turning to `Cc1ccc(NC(=O)c2c(C)oc3ccc(O)c(CN4CCCC4)c23)c(C)c1`, the activation was inactive: 20%.

With `CCOc1ccc(C2C(C(=O)OC)=C(C)NC3=C2C(=O)c2ccccc23)cc1OC` (stereo not drawn), the activation is inactive: -46.8%.

Turning to `CCc1ccc(NC(=O)C2CCCN(c3nn4cc(-c5ccc(OC)cc5)nc4s3)C2)cc1` (stereo not drawn), the activation is inactive: -12.5%.

For `Cc1ccc2onc(CNC(=O)Nc3ccccc3C#N)c2c1`, the activation is inactive: 10.2%.

Turning to `O=C(NCC(c1ccc2c(c1)OCO2)N1CCN(c2ccc(F)cc2)CC1)c1cccc([N+](=O)[O-])c1` (stereo not drawn), the activation is inactive: -29.8%.

Turning to `c1ccc(C(O[C@H]2CCCN(CCc3ccc4c(c3)OCO4)C2)c2ccccc2)cc1`, the activation is inactive: -6.55%.

For `COc1ccc(Nc2ncnc3c2c(-c2ccccc2)cn3-c2ccc(C)c(Cl)c2)cc1OC`, the activation was inactive: 2.72%.

Consider `CCc1ccccc1NC(=O)CSc1ncccc1C(=O)O`, for which the activation is inactive: -5.01%.

For the compound `COc1cccc(CNC(=O)CCc2c(C)nc3c(c2C)c(=O)n(C)c(=O)n3C)c1`, the activation was inactive: -11.5%.

For the compound `CCn1c2ccccc2c2cc(NC(=O)COc3ccc(C)cc3C)ccc21`, the activation is inactive: 0.244%.

In the case of `COc1ccc(-c2c(C)c3ccc(O)c(CN4CCOCC4)c3oc2=O)cc1`, the activation was inactive: -17.3%.

With `COC(=O)c1cc2sc(Cl)cc2n1Cc1c(C)cc(C)cc1C`, the activation was inactive: -5.69%.

Regarding `Cc1ccc(Cn2c(CNS(=O)(=O)c3cccc([N+](=O)[O-])c3)nc3cccnc32)cc1`, the activation is inactive: -28.8%.

With `CCOc1ccc(OCC)c(NS(=O)(=O)c2cc(-c3cnc(C)o3)ccc2OC)c1`, the activation is inactive: 0%.

For the compound `CCCCNC(=O)C1CCN(S(=O)(=O)CCC)CC1`, the activation is inactive: -1.55%.

As for `COc1ccc(OC)c(CNC(=O)c2ccc(C)c(NC(=O)c3nsc4ccccc34)c2)c1`, the activation is inactive: -12.7%.

Turning to `CCOC(=O)c1c(-c2ccccc2)csc1NC(=O)c1cc(=O)c2ccc(C)cc2o1`, the activation is inactive: 9.1%.

In the case of `CCc1nn2c(=O)cc(COC(=O)c3cccc(NC(=O)c4cccs4)c3)nc2s1`, the activation is inactive: -15.5%.

With `Cc1nc2nncn2c(Nc2ccccc2)c1C`, the activation was inactive: -12.5%.

As for `COc1ccc(OC)c(NC(=O)c2c(N3CCCC3=O)c3cc(OC)ccc3n2C)c1`, the activation was inactive: 16.1%.

As to `CCOC(=O)C1CCN(C(c2ccc(SC)cc2)c2c(O)cc(C)n(Cc3ccco3)c2=O)CC1` (stereo not drawn), the activation is inactive: -15.2%.

For `CCc1cccc(C)c1NC(=O)Cn1cnc2c1c(=O)n(C)c(=O)n2C`, the activation was inactive: -11.4%.

With `Cc1ccccc1-n1nc(CO)c(C(=O)NCc2cccnc2)n1`, the activation is inactive: -12.3%.

Regarding `COc1cc(C2NC(=O)c3c(sc4c3CCN(C)C4)N2)cc(Br)c1OC(=O)c1ccc(C)cc1` (stereo not drawn), the activation is inactive: 37.2%.

Regarding `COCCNC(=O)Nc1cc(C(=O)NCc2ccc(C(C)C)cc2)ccc1N1CCCC1`, the activation is inactive: -25.3%.

For `CCc1ccc(CNC(=O)C(C)n2ccc3cc(S(=O)(=O)N4CCCCCC4)ccc32)cc1` (stereo not drawn), the activation is inactive: 16.5%.

On to `COc1ccc(N2CCN(C(=O)CCn3c(=O)[nH]c4cc(OC)c(OC)cc4c3=O)CC2)cc1`, for which the activation was inactive: 13.1%.

With `COC(=O)c1c(NC(=O)CCCOc2ccc(C(C)(C)C)cc2)sc2c1C(C(=O)OC)CC2` (stereo not drawn), the activation was inactive: -24.4%.

Consider `COc1ccccc1N1CCN(c2ncnc3onc(-c4ccc(F)cc4)c23)CC1`, for which the activation is inactive: -10.8%.

For the compound `Cc1ccc(NC(=O)C2CCN(S(=O)(=O)c3ccc4[nH]c5c(c4c3)CCCCC5)CC2)cc1`, the activation is inactive: 4.04%.

In the case of `COc1cccc(C(=O)NCCc2csc(-c3ccc(Cl)cc3)n2)c1`, the activation is inactive: 47.2%.

Take `Cc1cccc(NC(=O)CCS(=O)(=O)c2cccc3nsnc23)c1C`: the activation was inactive: -14.8%.

`O=C(NCc1cccc(F)c1)C1CCCN(C(=O)N2CCOc3ccccc32)C1` (stereo not drawn): the activation is inactive: 4.19%.

`CCOC(=O)CSC1=Nc2ccccc2C2=NC(CCC(=O)NCc3ccc(F)cc3)C(=O)N12` (stereo not drawn): the activation is inactive: 11.3%.

`CC1CN(C(=O)N2CCC(C(=O)NCc3cccs3)CC2)c2cc(Cl)ccc2O1` (stereo not drawn): the activation is inactive: 3.23%.
